{
  "source": "the RNAGym collection of RNA variant scans (doi:10.1073/pnas.2313332121)",
  "parents": {"B1": {"name": "TPR 5TU (parent)", "chain": "GGAUCUUCUCGAUCUAACAAAAAAGACAAAUCUGCCACAAAGCUUGAGAGCAUCUUCGGAUGCAGAGGCGGCAGCCUUCGGUGGCGCGAUAGCGCCAACGUUCUCAACUAUGACACGCAAAACGCGUGCUCCGUUGAAUGGAGUUUAUCAUG"}},
  "note": "Variants at the background level are over-represented here.",
  "data": [
    {"variants_of": "B1", "experiment": "polymerase ribozyme fitness, log enrichment relative to wild type (log ratio); higher = more active; in vitro selection for triplet polymerase activity", "outline": "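Frozen incubation at −7 °C formed the core of a single, triplicate in vitro selection round applied to PCR-built, transcribed mutant libraries of each subunit of a heterodimeric triplet polymerase ribozyme. Extended constructs were gel-excised, captured with streptavidin beads and amplified by RT-PCR, and input and output libraries were Illumina-sequenced with a filter of ≥10 input reads and ≥1 read per output. Fitness is the logarithm of genotype enrichment relative to wild-type enrichment, with inverse-variance-weighted replicate averaging, and the logarithm is base 2.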", "values": [
      {"variant": "GGCUCUUCUCGGUCUAACAAAAAACACAAAUCUGCCACAAAGCUUGAGAGCCUCUUCGGAUGCAGAGGCGGCAGCCUUCGGUGGCGCGAUAGUGCCAACGUUCUCAACUAUGACAAGCAAAACGCGUGCUCCGUUGAAUGGAGUUUAUCAUG", "polymerase ribozyme fitness (log ratio)": -3.91},
      {"variant": "GGCUCUUCUCGUUCUAACAAAAAAGACAAAUCUGCCACAAAGCUUGAGAGCAUCAUCGGAUGCAGAGGCGGCAGAAUUCGGUGGCGCGAUAGCGCCAACGUUCUUAACUAUGACACGCAAAACGCGUGCUUCGUUGAAUGGAGUUUAUCAUG", "polymerase ribozyme fitness (log ratio)": "≤ -4.2"},
      {"variant": "GGCUCUUCUCGAUCUCACAAAAAAGACAAAUCUGCCACAAAGCUUGAGAGCAUCUUCAGAUGCAGAGGCGGCAGCCUUCGGUGGCGCGAUCGCGCCAACGUUCUCAACUAUGACACGCAAAACGCGUGCUCCGUUGAAUGGAGUUUAUCAUG", "polymerase ribozyme fitness (log ratio)": "≤ -4.2"},
      {"variant": "GGCUCUUCUCGAUCUUACAAAAAAGACACAUCUGCCACAAAGCUUGAGAGCAUCUUCGGAUGCAGAGGCGGCAGCCUUCGGUGACGCGAUAGCGCCAACGUUCUCAACUAUGACACGCAAAACGCGUGCUCCCUUGAAUGGAGUUUAUCAUG", "polymerase ribozyme fitness (log ratio)": "≤ -4.2"},
      {"variant": "GGCUCUUCUCGAUCUUACAAAAAAGACAAAUCUGCCACAAAGCUUGAGAGCAUAUUCGGAUGCAGAGGCGGCAGCCUUCGGUGGCGUGAUAGCGCCAACGUUCGCAACUAUGACACGCAAAACGCGUGCUCCGUUGAAUGCAGUUUAUCAUG", "polymerase ribozyme fitness (log ratio)": "≤ -4.2"},
      {"variant": "GGCUCUUCUCGAUCUAUCAAAAAAGUCAAAUCUGCCACAAAGCUUGAGAGCAUAUUCGGAUGCAGAGGCGGCAGUCUUCGGUGGCGCGAUAGUGCCAACGUUGUCAACUAUGACACGCAAAACGCGUGCUCCGUUGAAUGGACUUUAUCAUG", "polymerase ribozyme fitness (log ratio)": "≤ -4.2"},
      {"variant": "GGCUCUUCUCGAUCUAACAACAAAGACAAAUCUGACACAAAGCUUGAGAGCAUCUUCGGAUGCAGAGGCGGCAGCCUUCGGUGGUGCGAUAGCGCCAACGUUCUCAACUAUGACACGCAAAACGUGUGCUCCGUUGAAUGGAGUUUAUCAUG", "polymerase ribozyme fitness (log ratio)": "≤ -4.2"},
      {"variant": "GGCUCUUCUCGAUCUAACAAAAUAGACAAAUCUGCCACAAAGCACGAGAGCAUCUUCGGAUGCAGAGGCGGCAGCCUUCGGUGGCGCGAUAGCGUCAACGUUCUGCACUAUGACACGCAAAAUGCGUGCUCCGUUGGAUGGAGUUUAUCAUG", "polymerase ribozyme fitness (log ratio)": "≤ -4.2"},
      {"variant": "GGCUCUUCUCGAUCUAACAAAAAGGUCAAAUCUGCCACAAAGCUUGAGAGCAUCUUCGGAUGCAGUCGCGGCAGCCUUCGGUGGCGCGAUAGCGCCAACGUUCGCAACUAUGACACGCAAAACGCGUGCUCCGUUGAAUGGAGUUUAUCGUG", "polymerase ribozyme fitness (log ratio)": "≤ -4.2"},
      {"variant": "GGCUCUUCUCGAUCUAACAAAAAAGACGAAUCUGCCUCAAAGCUUGAGAGCUUCUUCGGAUGCAGAGGCGGCAGCCUUCGGUUGCGCGAUAGCGCCAACGUUCUCAACUAUGACACGCAAAACGCGUGCUCCGUUGAAUGGAGUUUAUCAUG", "polymerase ribozyme fitness (log ratio)": "≤ -4.2"},
      {"variant": "GGCUCUUCUCGAUCUAACAAAAAAGACACAUCUGCCACAAAGCUUGAGAGCAUCUUUGGAUGCAGAGGCGGCAGCCUUCGGUGGCGCGAUAGCGCCAACGGUCUCAACUAUGAUACGCAAAACGCGUGCUCCGUUGAAUGAAGUUAAUCAUG", "polymerase ribozyme fitness (log ratio)": "≤ -4.2"},
      {"variant": "GGCUCUUCUCGAUCUAACAAAAAAGACAAUUCUGCCACAAAGCUUGAGAGCAUCUUCGGAUGCAGAGGCGGCAGCCUUCGGUGGCGCGAUAGUGCCAACGUUCUCAACUAUGACGCGCAAAACGCGUGCUCCGUUGAAUGGAGUUUAUCAUG", "polymerase ribozyme fitness (log ratio)": "≤ -4.2"},
      {"variant": "GGCUCUUCUCGAUCUAACAAAAAAGACAAAUCUGCCCCAAAGCUUGAGAGCAUCUUCGGAUGCAGAGGCGGCAGCCUUCGGAGGCGCCAUAGCGCCAACGUGCUCAACUAUGUUACGCAAAACGCGUGCUCCGUUGAAUGGAGUUUAUCAUG", "polymerase ribozyme fitness (log ratio)": "≤ -4.2"},
      {"variant": "GGCUCUUCUCGAUCUAACAAAAAAGACAAAUCUGCCACAAAGCUUGAGCGCAUCUUCGGGUGCAGAGGCGGCAGCCUUCGGUAGCGCGAUAGCGCCAACGUUCUCAACUAUGACACGCAAAACGCGUGCUCCGUUGAAUGGAGUUUAUCAUG", "polymerase ribozyme fitness (log ratio)": "≤ -4.2"},
      {"variant": "GGCUCUUCUCGAUCUAACAAAAAAGACAAAUCUGCCACAAAGCUUGAGAGCCUCAUAGGAUGCAGAGGCGGCAGCCUUCGAUGGCGCGAUAGCCCCAACGUUCUCAACUAUGACACGCAAAACGCGUGCUCCGUUGAAUGGAGUUUAUCAUG", "polymerase ribozyme fitness (log ratio)": -4.03},
      {"variant": "GGCUCUUCUCGAUCUAACAAAAAAGACAAAUCUGCCACAAAGCUUGAGAGCAUCUUCGGAUGCAGAGGCGGCAGCCUUCGGUGGCGCGAUAGCGCCUACGUUCUCAACUAUGACACGCAAAACGCGUGCUCCGUGGAAUCGAGUUUAUCAUG", "polymerase ribozyme fitness (log ratio)": "≤ -4.2"},
      {"variant": "GGCUUUUCUCGAUCUAACAAAAAAGACAAAUCUGCCACAAAGCUUGAGAGCAACUUCGGAUGCAGAGGCAGCAGCCUUAGGUGGCGCGAUAGCACCAACAUUCUCAACUAUGACACGCAAAACGCGUGCUCCGUUGAAUGGAGUUUAUCAUG", "polymerase ribozyme fitness (log ratio)": "≤ -4.2"},
      {"variant": "GGCUCUUGUCGAUCUAACAAAAAAGACAAAUCUGCCACAAAGCUUGAGAGCAUCUUCGGAUGCAGAGGCGGCAGCUUUCGGUGGCGAGAUAGCGCCAACGUUCUCUACUAUGACACGCAAAACGCGUGCUCCGUUGAAUGGAGUUUAUCAUG", "polymerase ribozyme fitness (log ratio)": "≤ -4.2"},
      {"variant": "GGCUCUUUUCGAUCUAGCAAAAAAGACGGAUCUGCCACAAAGCUUGAGAGCAUCUUCGGAUGCAGAGGCGGCACCCUUCGGAGGCGCGAUAGCGCAAACGUUCUCAACUAUGACGCGCAAAACCCGUGCUCCGUUGAAUGAAGUUUAUCAUG", "polymerase ribozyme fitness (log ratio)": "≤ -4.2"}
    ]}
  ]
}
